Reference: PubChem BioAssay AID493208 (National Center for Advancing Translational Sciences (NCATS), 2011)
Out of some 44,000 compounds screened, about 340 (0.77%) were called active. Another 5% or so got no clear call; they are omitted. Calls come from the whole dose curve; as a rule, active = well fitted inhibition curve with a large enough effect; inconclusive = small, poorly fitted or top-dose-only effect; inactive = flat fitted curve, though single readings scatter. The list shows a part of the results.

Assay: Acumen qHTS Assay for Inhibitors of the mTORC1 Signaling Pathway in MEF (Tsc2-/-, p53-/-) Cells: Sytravon;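 note: plate controls were DMSO for no effect and rapamycin for full effect; nearly all actives have a fitted effect of over 50% in size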
Conditions: phospho-rpS6 immunofluorescence/PI, 24 h; series mostly up to 38.3 µM; activity change, negative = inhibition: at the top concentration
Summary of the method: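 Read-out: phospho-S6 Alexa-488 intensity over PI intensity per well, scored as % active cells using thresholds from rapamycin (7.5 nM) and DMSO controls. Tsc2-/-, p53-/- MEFs exposed to compound for 24 h; PI cell count recorded as viability.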

SMILES | activity change, negative = inhibition
CCOC(=O)C1=C(CNCc2ccc(Cl)cc2)NC(=O)NC1c1ccccc1 (centres undefined) | inactive: 0.84%
CC(=O)N1c2ccccc2CC1C(=O)N1CCN(c2ccccc2F)CC1 (centres undefined) | inactive: 10.1%
COc1ccc(CCNC(=O)Cn2nc(-c3ccc(Cl)cc3)ccc2=O)cc1OC | inactive: 8.35%
CCOc1ccc(Nc2ncnc3onc(-c4ccc(Cl)cc4)c23)cc1 | inactive: -14.2%
COc1cn(CC(=O)Nc2cccc(C)c2)c(CN2CCCCC2)cc1=O | inactive: -0.786%
CCn1cc(/C=C(\NC(=O)c2ccc(OC)c(OC)c2)C(=O)NCCCn2ccnc2)c2ccccc21 | inactive: 2.33%
CCOC(=O)c1cc(-c2ccc(OC)cc2)n(CCC(=O)NCCc2ccc(OCC)c(OCC)c2)c1C | inactive: -0.138%
Cc1ccc(NC(=O)N2CCC(CN3CCCCC3)CC2)c(Cl)c1 | inactive: 2.71%
CC(=O)c1ccc(N2CCN(S(=O)(=O)c3ccc(-c4cnc(C5CC5)o4)cc3)CC2)cc1 | inactive: 0%
Cc1ccc(OCC(=O)Nc2ccc(C(=O)OCc3cc(=O)n4ccsc4n3)cc2)cc1C | inactive: 0%
Cc1nc2sccn2c(=O)c1S(=O)(=O)Nc1cccc(Cl)c1C | inactive: -1.8%
Cc1ccc(C2C(=O)N(C3CCCCCC3)CC(=O)N2CCC2=CCCCC2)cc1 (centres undefined) | inactive: 9.9%
Cc1ccc(N2CCN(C(=O)CCS(=O)(=O)c3cc4c(cc3Cl)NC(=O)CO4)CC2)c(C)c1 | inactive: -17.4%
CC1CCN(c2nc3c(S(=O)(=O)c4cccc(Cl)c4)nnn3c3ccsc23)CC1 | inactive: -3.93%
COc1cc([N+](=O)[O-])ccc1NC(=O)N1CCC2(CC1)Nc1cc(F)ccc1-n1cccc12 | inactive: -0.608%
CC(C)(C)OC(=O)N1CCC(c2c(C(=O)N3CCN(c4ncccn4)CC3)cnn2-c2ccc(F)cc2)CC1 | inactive: 0.365%
CCOC(=O)c1c(-c2ccc(OC)cc2)oc2ccc(OCc3ccc(F)cc3F)cc12 | inactive: -11.3%
Cc1ccccc1Nc1nnc(-c2ccc(C)c(S(=O)(=O)NCC3CCCO3)c2)c2ccccc12 (centres undefined) | inactive: -3.64%
CN(C)c1ccc(CNC(=O)C2CCN(C(=O)c3ccc(-n4ccc5ccccc54)s3)CC2)cc1 | inactive: -21.7%
CCOC(=O)c1ccc(NC(=O)C(CC)Sc2nncn3c2cc2oc(C)cc23)cc1 (centres undefined) | inactive: -5.53%

SMILES | activity change, negative = inhibition
Cc1cn2c(=O)cc(COC(=O)c3ccc(NC(=O)c4ccc(C(C)(C)C)cc4)cc3)nc2s1 | inactive: 0%
COc1ccc(C2=Nc3ccccc3N(CC(=O)Nc3cccc(C(C)=O)c3)C(=O)C2)cc1 | inactive: 0%
COc1ccc(CNS(=O)(=O)c2csc(C(N)=O)c2)cc1OC | inactive: 0%
CCCCNc1nc2c(-c3cccc(Br)c3)nnn2c2ccccc12 | inactive: -12.8%
CCC1=C(c2ccc(C)cc2)S(=O)(=O)N=C1N1CCC(C(=O)NCCc2cccc(OC)c2)CC1 | inactive: 0.518%
COc1cccc2c1cc1c(=O)n(CC(=O)NCCCN3CCN(C)CC3)nc(C)n12 | inactive: -6.92%
COc1ccc(OCCCn2c(C)nc3cc(C)c(C)cc32)cc1 | inactive: -11.1%
O=C1Nc2c(c(=O)[nH]c(=O)n2-c2ccc(F)cc2)C1(NS(=O)(=O)c1ccc(Cl)cc1)C(F)(F)F (centres undefined) | inactive: 1.47%
Cn1nnnc1SCCCNCc1cc(Cl)ccc1OCc1ccccc1 | inactive: -7.48%
COC(=O)c1ccc(OCC2c3cc(OC)c(OC)cc3CCN2C(=O)Cc2ccc(OC)c(OC)c2)cc1 (centres undefined) | inactive: 7.93%
CC(C)c1nn2c(=O)cc(COC(=O)c3ccc4c(c3)OCO4)nc2s1 | inactive: 3.42%
Cc1cn2c(=O)c(S(=O)(=O)NCCc3ccc(Cl)cc3)c(C)nc2s1 | inactive: 5.79%
COc1cc(C(=O)Nc2nnc(CC(C)(C)C)s2)cc(OC)c1OC | inactive: -0.108%
CCc1ccc(NC(=O)C2CCCN2S(=O)(=O)c2cccc3nsnc23)cc1 (centres undefined) | inactive: -1.24%
CC(=O)N1CCc2c(sc3c2c(=O)n(-c2ccccc2)c(=O)n3CC(=O)c2ccc(F)cc2)C1 | inactive: 3.17%
CCOc1ccc(C(=O)Nc2ccc(Cl)c(-c3nc4cc(C)cc(C)c4o3)c2)cc1 | inactive: -18.7%
COc1ccc(-c2nc3sc(CCNC(=O)c4ccc(C(C)(C)C)cc4)c(C)n3n2)cc1 | inactive: -5.92%
CCOc1ccccc1C(=O)Nc1cc2c(cc1C)n(C)c(=O)c(=O)n2C | inactive: -4.4%
COc1ccc(CNC(=O)CN(C)S(=O)(=O)c2ccc3[nH]c4c(c3c2)CCCC4)cc1 | inactive: 1.29%
Cn1cc(-c2cc3n(n2)CCC(=O)N3CCCC(=O)NCc2ccccc2)c2ccccc21 | inactive: 1.81%

SMILES | activity change, negative = inhibition
CCOC(=O)C1CCC(CN(Cc2ccc(OC)cc2)S(=O)(=O)c2ccc(F)c(C(=O)Nc3cc(Cl)ccc3OC)c2)CC1 (centres undefined) | inactive: 4.62%
COc1ccc(NC(=O)Cc2ccc(NC(=O)N3CCCCc4ccccc43)cc2)c(OC)c1 | inactive: -5.42%
CCN(CC)CCNC(=O)Cn1cnc2sc(C)c(S(=O)(=O)N3CCC(C)CC3)c2c1=O | inactive: 6.48%
COc1cccc(NC(=O)CN2C(=O)C3(SCC(=O)N3c3cc(C)cc(C)c3)c3ccccc32)c1 (centres undefined) | inactive: 6.54%
Cc1ccc(NC(=O)C2CCN(S(=O)(=O)c3c(C)noc3C)CC2)cc1C | inactive: 1.56%
Cc1ccc(CN2C(=O)N(c3ccc(C)c(Cl)c3)S(=O)(=O)c3ccccc32)cc1 | inactive: -0.654%
N#Cc1ccc(NC(=O)COCc2cc(-c3ccc(F)cc3)on2)cc1 | inactive: 1.05%
COC(=O)c1cc2oc(C)cc2n1Cc1ccc(Cl)cc1 | inactive: 8.25%
CCOc1ccc(CNC(=O)c2cnc(SC)nc2C)cc1 | inactive: -14.1%
CCOC(=O)C1CCN(C(=O)c2nn(-c3ccc(C)cc3)c(=O)n(C)c2=O)CC1 | inactive: -0.616%
COC(=O)c1c(-c2cccs2)csc1NC(=O)COc1ccc(C(C)C)cc1 | inactive: -1.45%
CCc1ccc(CNC(=O)c2ccc(CS(=O)(=O)Cc3ccccc3C)o2)cc1 | inactive: 3.63%
O=C(Nc1ccc(Cl)cc1C(F)(F)F)c1cc(S(=O)(=O)NCc2ccccc2)ccc1F | inactive: 6.47%
CCN(CC)C(=O)C1CCN(C(=O)c2cnn(-c3ccccc3)c2-n2cccc2)CC1 | inactive: -3.52%
CCOC(=O)CSc1nc2ccccc2n2c(C)nnc12 | inactive: -2.84%
O=C(CSc1nccn1C1CCCC1)Nc1ccccc1 | inactive: 4.07%
COc1ccc(CNC(=O)CCS(=O)(=O)c2ccc3c(c2)CC(C)N3C(=O)C2CC2)cc1 (centres undefined) | inactive: -11.4%
Cc1ccc(Cl)cc1N1CCN(C(=O)c2cn(C)c3ccc(S(=O)(=O)N4CCCC4)cc3c2=O)CC1 | inactive: -5.34%
CCOc1ccc(-n2ccnc2SCC(=O)Nc2ccc(OC)cc2OC)cc1 | inactive: -6.9%
